# Assay results taken from publication PMC4336329 (PLoS ONE, 2015).
# Screen size: about 310,000 compounds; about 14,000 (4.5%) showed an effect of 50% or more. The effect is printed as a negative number. This is one part of the list.
# Biological target: human ether-à-go-go-related gene (hERG) potassium channel (human, UniProt Q12809)
# Experiment: primary screen, population patch clamp on CHO cells stably expressing hERG
# 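Further: peak tail current of the secondary pulse compared with the same well before compound.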
# Chain of human ether-à-go-go-related gene (hERG) potassium channel (Q12809 whole entry, looked up): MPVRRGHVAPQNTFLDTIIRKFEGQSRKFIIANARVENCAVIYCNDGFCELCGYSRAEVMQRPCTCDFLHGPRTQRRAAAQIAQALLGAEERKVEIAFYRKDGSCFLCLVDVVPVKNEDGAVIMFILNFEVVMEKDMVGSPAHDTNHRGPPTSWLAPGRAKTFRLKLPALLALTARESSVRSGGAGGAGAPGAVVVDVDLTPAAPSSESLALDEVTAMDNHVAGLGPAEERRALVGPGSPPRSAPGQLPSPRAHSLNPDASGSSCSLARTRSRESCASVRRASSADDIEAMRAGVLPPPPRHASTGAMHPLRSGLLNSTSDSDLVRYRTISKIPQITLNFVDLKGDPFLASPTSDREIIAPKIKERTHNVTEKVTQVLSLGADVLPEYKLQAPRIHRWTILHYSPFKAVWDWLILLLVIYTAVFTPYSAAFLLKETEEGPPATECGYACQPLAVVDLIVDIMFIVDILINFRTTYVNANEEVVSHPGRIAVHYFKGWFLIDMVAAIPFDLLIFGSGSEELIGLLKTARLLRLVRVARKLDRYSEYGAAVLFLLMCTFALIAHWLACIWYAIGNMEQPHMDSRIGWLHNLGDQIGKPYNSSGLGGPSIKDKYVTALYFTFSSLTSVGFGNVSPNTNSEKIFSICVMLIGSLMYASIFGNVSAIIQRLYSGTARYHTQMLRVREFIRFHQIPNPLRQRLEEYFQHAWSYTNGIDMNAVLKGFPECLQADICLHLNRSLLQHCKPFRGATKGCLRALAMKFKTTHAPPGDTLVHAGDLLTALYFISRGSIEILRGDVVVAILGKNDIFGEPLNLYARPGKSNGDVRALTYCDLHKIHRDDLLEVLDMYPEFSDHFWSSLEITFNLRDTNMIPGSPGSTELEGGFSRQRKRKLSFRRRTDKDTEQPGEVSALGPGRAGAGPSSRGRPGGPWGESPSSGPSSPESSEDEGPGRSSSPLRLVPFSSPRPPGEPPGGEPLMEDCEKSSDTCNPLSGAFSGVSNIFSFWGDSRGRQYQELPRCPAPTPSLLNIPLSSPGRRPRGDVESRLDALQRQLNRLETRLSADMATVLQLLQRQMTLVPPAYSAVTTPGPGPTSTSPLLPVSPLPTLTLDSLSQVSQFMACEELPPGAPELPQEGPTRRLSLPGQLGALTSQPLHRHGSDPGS
row,Structure (SMILES),"hERG current change (%, negative = inhibition) at 10uM"
1,Cn1cc(C(=O)N2CCN(C(=O)c3ccco3)CC2)c2c3ccccc3n(C)c2c1=O,-22.8%
2,CCc1nn(CC(=O)N2CCC3(CC2)OCCO3)c(=O)c2cc3ccccc3n12,-8.07%
3,COc1ccccc1NC(=O)/C=C\c1ccco1,-0.482%
4,Cl.O=C(O)c1cccc(Nc2nc(-c3ccccc3)nc3ccccc23)c1,23.3%
5,CCOC(=O)N1CCC(N2C(=O)c3ccccc3C2Nc2ccc3c(c2)OCCO3)CC1 (stereo not shown),-7.43%
6,CC(=C\c1ccccc1)/C=C1/SC(=S)N(CCCC(=O)O)C1=O,42.6%
7,CCOC(=O)N1CCN(CC(=O)Nc2cc(OC)c(OC)cc2C#N)CC1,23.4%
8,CC1CCCN(C(=O)CSc2nc3ccccc3o2)C1 (stereo not shown),-11.7%
9,CC1CCCCN1S(=O)(=O)c1ccc(S(=O)(=O)N2CCN(c3ccc(F)cc3)CC2)cc1 (stereo not shown),-4.33%
10,COCC(C)NC(=O)c1cc2c(ccc3ccccc32)oc1=O (stereo not shown),22.8%
11,O=C(N/N=C/c1ccccc1Cl)c1ccc(F)cc1,15%
12,Cc1cc2ncc(-c3cccc(Cl)c3)cn2n1,8.42%
13,CC(Oc1ccccc1)C(=O)Nc1cccc(F)c1 (stereo not shown),12.5%
14,Cc1ccc(C(=O)NNC(=O)CSc2nnc(CNc3ccc(F)cc3)n2C)cc1,35.3%
15,NC(=O)c1cc2ccccc2o/c1=N\NC(=O)c1ccncc1,-17.1%
16,CCN(CC)c1ccc([N+](=O)[O-])cc1C(=O)O,21.3%
17,Cc1cc(Br)ccc1NC(=O)C1CSC2(C)CCC(=O)N12 (stereo not shown),-15.5%
18,CC1=C(C(=O)N(C)C)C(c2ccc(Cl)c(Cl)c2)NC(=O)N1 (stereo not shown),12.8%
19,O=S1(=O)N(Cc2ccccc2F)CCCN1Cc1c(F)cccc1Cl,7.29%
20,Cc1cccc(C(=O)Oc2ccc(/C=N/O)cc2)c1,-11.6%
21,O=C(CSC1=NS(=O)(=O)c2cc(F)ccc2N1)Nc1cccc(F)c1,-4.79%
22,O=C(CNC(c1ccccc1)c1ccccc1)Nc1c(F)cccc1F,-17.2%

row,Structure (SMILES),"hERG current change (%, negative = inhibition) at 10uM"
1,CN(Cc1c(C(=O)N/N=C/c2ccccc2F)nnn1-c1nonc1N)c1ccccc1,36.1%
2,COC(=O)C(C)Sc1n[nH]c(=S)s1 (stereo not shown),19.2%
3,Br.c1cn2cc(CN3CCOCC3)nc2s1,1.96%
4,COCCN1C(=O)/C(=C/c2c(OC)cc(OC)cc2OC)C(=O)N(c2ccccc2)C1=O,12.2%
5,O=C(O)c1cnn(-c2nc(-c3cccc([N+](=O)[O-])c3)cs2)c1C(F)(F)F,30.4%
6,COc1cc(/C=N/n2cc(-c3ccccc3)[nH]c2=S)cc(OC)c1O,-32.1%
7,Cc1ccc(OCCNC(=O)CCNS(=O)(=O)c2ccc(Br)cc2)cc1,15.7%
8,COC(=O)C1=C(c2ccc(F)cc2OCc2ccccc2)C[C@@H]2CC[C@H]1N2C(=O)NC1CC1,-10.4%
9,O=C1NN=C(c2ccccc2)CC1c1ccc(Cl)cc1Cl (stereo not shown),19.8%
10,O=[N+]([O-])c1ccc(-c2nc(C(Cl)Cl)c3ccccc3n2)cc1,5.99%
11,CC(=O)c1ccc(C(=O)N2CCCC(Nc3ccccc3)C2)s1 (stereo not shown),7.78%
12,CC(=O)Nc1ccc(S(=O)(=O)N/N=C/c2cccnc2)cc1,20.6%
13,CCn1nc([N+](=O)[O-])c(C(C#N)c2nc3cc(C(F)(F)F)ccc3s2)c(Cl)c1=O (stereo not shown),21%
14,CN(C)c1cc[n+](CC(=O)Nc2ccc([N+](=O)[O-])cc2Cl)cc1.[Cl-],4.85%
15,O=C(CCCCCn1c(=O)[nH]c2ccsc2c1=O)NCc1ccc2c(c1)OCO2,6.93%
16,CC(=O)NC(Cc1ccc(C)cc1)C(=O)NC1CCN(S(=O)(=O)c2ccccc2)CC1 (stereo not shown),-34.4%
17,Cn1c(=O)c2[nH]c(NCCCN3CCOCC3)nc2n(C)c1=O,-1.8%
18,CC(=O)N1CCc2cc(Br)cc(S(=O)(=O)NCC3CCCO3)c21 (stereo not shown),-3.74%
19,COc1ccc(-n2ncc3c2CC(C)(C)CC3NC(=O)CCN2CCCC2=O)cc1 (stereo not shown),-1.07%
20,CCOc1ccc(NS(=O)(=O)c2ccc3[nH]cc(C(=O)NC(C)CC)c(=O)c3c2)cc1 (stereo not shown),2.15%
21,O=C(O)C(Cc1ccccc1)NC(=O)C(Cc1ccccc1)NC(=O)C12CC3CC(CC(C3)C1)C2 (stereo not shown),12.8%
22,CNS(=O)(=O)c1cccc(C(=O)OCC(=O)N2c3ccccc3CC2C)c1 (stereo not shown),-27.9%

row,Structure (SMILES),"hERG current change (%, negative = inhibition) at 10uM"
1,CC(C)(C)[C@@H]1C=C(C(=O)NCc2ccccc2)O[C@H](OCc2ccc(CO)cc2)C1,-28.4%
2,Cc1ccc(SC[C@H](Cc2ccccc2)N2CC[C@@H](C)CCC2=O)cc1,-28.7%
3,COc1ccc2oc(C(=O)OCC(=O)N3CCN(S(=O)(=O)c4ccccc4)CC3)c(C)c2c1,11%
4,c1ccc2[nH]c(-c3ccncc3)nc2c1,12.5%
5,O=C(COC(=O)c1ccccn1)NC1CCCCC1,2.2%
6,CCOC(=O)C1=C(C)N(CCC(=O)O)C(=O)NC1c1ccccc1Cl (stereo not shown),-4.03%
7,N#CN=C(c1ccccc1)c1ccccc1,20.5%
8,CCn1c(-c2csc(-c3ccc(Cl)cc3)n2)n[nH]c1=S,11.3%
9,Cc1ccc(-c2ccc(=O)n(Cc3cc(C)ccc3C)n2)cc1,16%
10,N#Cc1ccc(-c2cccs2)nc1SCc1cccnc1,17.5%
11,Cc1ccc(N2C(N)=C(C#N)C3(C(=O)N(C)c4ccccc43)C3=C2CC(C)(C)CC3=O)cc1Cl (stereo not shown),-8.85%
12,CCCCOc1ccc(C(=O)NCC(=O)NNC(=O)C2COc3ccccc3O2)cc1 (stereo not shown),-18.2%
13,Cc1ccc(/C(N)=N/OC(=O)/C=C/c2ccccc2)cc1,1.03%
14,COc1cccc(/C=N/n2c(COc3ccccc3)n[nH]c2=S)c1OC,6.88%
15,COCCOC(=O)C1=C(N)Oc2c(oc(CO)cc2=O)C1c1ccccc1F (stereo not shown),-4.2%
16,COc1ccc(N2CCN(C(=O)c3cc4c(=O)n(Cc5ccccc5)ccc4nc3C)CC2)cc1,-55.2%
17,O=C1NC2C(NC(=O)N2C2CCCCC2)N1C1CCCCC1 (stereo not shown),7.47%
18,COc1ccc(OC)c(-c2c3c([nH]c(=S)c2C#N)CCCC3)c1,10.8%
19,Cc1cccc(N2CCN(S(=O)(=O)c3c(C(=O)N4CCCCC4)c(C)n(C)c3C)CC2)c1C,-9.26%
20,CC(=O)NC(CCS(C)(=O)=O)C(=O)Nc1ccccc1 (stereo not shown),23%
21,COC(=O)Cc1c(C)nc2nc(NCc3c(F)cccc3Cl)[nH]n2c1=O,-11.3%
22,CCO.O=c1[nH]c(NNC(=S)NCc2ccccc2)nc2c1C1(CCCCC1)Cc1ccccc1-2,21.9%

row,Structure (SMILES),"hERG current change (%, negative = inhibition) at 10uM"
1,CN(C)c1ccc(-c2nn3c(-c4cccnc4)nnc3s2)cc1,10.6%
2,CCCC(C)C(=O)OCC(=O)NCc1ccc(OC)c(OC)c1 (stereo not shown),3.95%
3,COc1ccc(CCNC(=O)c2noc3c2CCCC3)cc1OC,3.46%
4,CCOc1ccc(C2C=C(c3ccc(C)cc3)Nc3ncnn32)cc1 (stereo not shown),1.34%
5,COc1ccc(O)c(C(=O)c2cnc3onc(C(C)C)c3c2)c1,11.1%
6,O=S(=O)(NC1CCCC1)c1ccc(S(=O)(=O)N2CCCN(Cc3ccccc3)C2)cc1,-26.8%
7,CCc1nc(SCc2ccccc2)n[nH]1,23.1%
8,CCOC(=O)Cc1c(C)c2ccc(N(CC)CC)cc2oc1=O,11.1%
9,Cc1nn(CC(=O)Nc2nccs2)c(C)c1[N+](=O)[O-],-3.78%
10,CC1(C)CC(=O)C2=C(C1)N(CCN1CCOCC1)C1=C(C(=O)CC(C)(C)C1)C2c1ccc(Cl)c([N+](=O)[O-])c1,-30.3%
11,CC1CCc2nc3ccccc3c(C(=O)OCC(=O)NC3CCS(=O)(=O)C3)c2C1 (stereo not shown),0.522%
12,CCOc1ccc(NC(=O)CN(C)S(=O)(=O)c2ccc(-c3ccc(=O)[nH]n3)s2)cc1,2.54%
13,CCCn1nnc(NC(=O)c2ccccc2Br)n1,12.8%
14,COC(=O)c1[nH]c2ccc(Cl)cc2c1NC(=O)CN1CCC(C(N)=O)CC1,-2.26%
15,CCN(C(=O)COC(=O)c1cc(C)n(C2CC2)c1C)c1ccccc1,0.464%
16,COc1ccc(N(C(=O)/C=C/c2ccc(OC)c(OC)c2)C2=CC3CCC(C2)N3C)cc1.Cl (stereo not shown),-69.6%
17,CCOC(=O)C1CCN(C(=O)c2cccnc2)CC1,7.65%
18,Br.CCc1ccc(C(=O)Cn2ccsc2=N)cc1,16.4%
19,CC(=O)C1=C(C)OC(N)=C(C#N)C1c1ccco1 (stereo not shown),3.96%
20,COc1ccc(OCCCC(=O)Nc2nc(C)c(C(C)=O)s2)cc1,24.5%
21,COC(=O)c1ccc(CSc2nnc(Nc3ccc(C)cc3)s2)o1,13%
22,Cc1cccc(C)c1NC(=O)CNC(=O)CCC(=O)c1cccs1,0.383%
